# Some of the results follow. Single values are uncertain, as repeats are few or missing.
# Columns and labels:
# Assay in all cases: cell count relative to DMSO control; melanoma cells; higher = more viable cells
# Details in all cases: library dose: standard library concentration; 72 h
# [1] = test system: A101D
# [2] = test system: A2058
# [3] = test system: A375
# [4] = test system: 501Mel
# 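Note: cells treated in 1,536-well plates, then fixed and DAPI-stained, with nuclei counted from automated high-throughput microscope images.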
Structure (SMILES),cell count [1] [%],cell count [2] [%],cell count [3] [%],cell count [4] [%]
"Cc1cc(Nc2cc(N3CCN(C)CC3)nc(Sc3ccc(NC(=O)C4CC4)cc3)n2)n[nH]1 [Tozasertib] + C[C@]12O[C@H](C[C@]1(O)CO)n1c3ccccc3c3c4c(c5c6ccccc6n2c5c31)CNC4=O [Lestaurtinib] (first compound 0.03 µM, partner dose 0.02 µM)",61.7,86.8,111,
"Cc1cc(Nc2cc(N3CCN(C)CC3)nc(Sc3ccc(NC(=O)C4CC4)cc3)n2)n[nH]1 [Tozasertib] + Cn1cc(C2=C(c3cn(C4CCN(Cc5ccccn5)CC4)c4ccccc34)C(=O)NC2=O)c2ccccc21 [Enzastaurin] (first compound 0.03 µM, partner dose 4 µM)",85.4,88.8,79.4,
"Clc1ccc(Nc2nnc(Cc3ccncc3)c3ccccc23)cc1 [vatalanib] + Cc1cc(SCc2sc(-c3ccc(C(F)(F)F)c(F)c3)nc2C)ccc1OCC(=O)O [GW0742] (first compound 10 µM, partner dose 10 µM)",78.7,92.3,90.7,
"C#Cc1cccc(Nc2ncnc3cc(OCCOC)c(OCCOC)cc23)c1 [erlotinib] + O=C(Oc1ccc([N+](=O)[O-])cc1)N1CCC(C(O)(c2ccc3c(c2)OCO3)c2ccc3c(c2)OCO3)CC1 [JZL184] (first compound 4 µM, partner dose 5 µM)",67.9,86.2,111,53
"O=C(O)c1ccc2c(c1)nc(Nc1cccc(Cl)c1)c1ccncc12 + O=C(Oc1ccc([N+](=O)[O-])cc1)N1CCC(C(O)(c2ccc3c(c2)OCO3)c2ccc3c(c2)OCO3)CC1 [JZL184] (first compound 2 µM, partner dose 5 µM)",84,80.3,93.3,84
"CO[C@H]1C[C@@H]2CC[C@@H](C)[C@@](O)(O2)C(=O)C(=O)N2CCCC[C@H]2C(=O)O[C@H]([C@H](C)C[C@@H]2CC[C@@H](OCCO)[C@H](OC)C2)CC(=O)[C@H](C)/C=C(\C)[C@@H](O)[C@@H](OC)C(=O)[C@H](C)C[C@H](C)/C=C/C=C/C=C/1C [everolimus] + C[As](C)SC[C@H](NC(=O)CC[C@H](N)C(=O)O)C(=O)NCC(=O)O [Darinaparsin] (first compound 0.1 µM, partner dose 2 µM)",62.4,47,82.9,
"Cc1cc(Nc2cc(N3CCN(C)CC3)nc(Sc3ccc(NC(=O)C4CC4)cc3)n2)n[nH]1 [Tozasertib] + C/C(O)=C(\C#N)C(=O)Nc1cc(Br)ccc1Br [LFM-A13] (first compound 0.03 µM, partner dose 10 µM)",96.8,88.9,82.5,108
"CN1CCN(c2ccc3nc(-c4c(N)c5c(F)cccc5[nH]c4=O)[nH]c3c2)CC1 [Dovitinib] + Cc1cc(SCc2sc(-c3ccc(C(F)(F)F)c(F)c3)nc2C)ccc1OCC(=O)O [GW0742] (first compound 0.5 µM, partner dose 10 µM)",75.1,62.4,105,
"O=C(O)c1ccc2c(c1)nc(Nc1cccc(Cl)c1)c1ccncc12 + C/C(O)=C(\C#N)C(=O)Nc1cc(Br)ccc1Br [LFM-A13] (first compound 2 µM, partner dose 10 µM)",74.5,73.4,70.1,

# From the supplement of paper PMC4604168 (melanoma cell lines)
